Test in all cases: mutation enrichment score (mutant vs wild-type peptide binding to bait); baits are purified protein domains named by gene / domain / UniProt id / residues; peptides come from disordered regions of human proteins; higher = mutation enhances binding relative to wild type
For one assay, the target named is T1, AP2_Mu__Q96CW1_160_435.
T1 chain: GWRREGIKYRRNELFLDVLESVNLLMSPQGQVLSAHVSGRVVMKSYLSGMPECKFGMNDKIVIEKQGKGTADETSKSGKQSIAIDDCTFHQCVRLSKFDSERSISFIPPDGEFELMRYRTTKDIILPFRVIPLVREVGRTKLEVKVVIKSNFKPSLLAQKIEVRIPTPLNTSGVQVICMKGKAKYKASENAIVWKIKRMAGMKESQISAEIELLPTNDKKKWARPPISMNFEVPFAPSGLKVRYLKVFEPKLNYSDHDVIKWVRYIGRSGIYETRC
The conditions noted are these: wild-type window: ….

The target of assay [1] is T2, AURKA_Pkinase-merged__O14965_125_391.
T2 chain: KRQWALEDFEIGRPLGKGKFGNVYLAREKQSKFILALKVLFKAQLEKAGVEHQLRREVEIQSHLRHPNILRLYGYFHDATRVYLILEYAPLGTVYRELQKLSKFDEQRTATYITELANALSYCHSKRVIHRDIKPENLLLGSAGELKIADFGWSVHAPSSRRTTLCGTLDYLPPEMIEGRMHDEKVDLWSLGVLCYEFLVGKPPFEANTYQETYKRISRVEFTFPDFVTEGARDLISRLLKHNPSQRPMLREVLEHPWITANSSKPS
The note with it: number of wild-type / mutant comparisons summed (bounds the score): 6, wild-type window: ….

The target in assay [2] is CBX3_CHROMO-Shadow__Q13185_109_173. The conditions noted are these: paper call: no_effect, wild-type window: ….
The target in assay [3] is T3, CSK21_Pkinase__P68400_1_335.
T3 chain: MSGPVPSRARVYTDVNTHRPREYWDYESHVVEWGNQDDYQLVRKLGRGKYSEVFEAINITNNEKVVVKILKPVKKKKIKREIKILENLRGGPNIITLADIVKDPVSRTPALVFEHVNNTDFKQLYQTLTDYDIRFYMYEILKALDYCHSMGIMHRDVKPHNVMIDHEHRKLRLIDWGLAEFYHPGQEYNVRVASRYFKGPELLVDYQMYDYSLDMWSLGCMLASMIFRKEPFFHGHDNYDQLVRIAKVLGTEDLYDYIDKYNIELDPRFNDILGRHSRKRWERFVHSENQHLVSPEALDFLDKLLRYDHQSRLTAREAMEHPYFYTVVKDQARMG
The note with it: number of wild-type / mutant comparisons summed (bounds the score): 12; paper call: no_effect; wild-type window: ….

For another assay, the target named is T4, GGA1_VHS__Q9UJY5_1_157.
T4 chain: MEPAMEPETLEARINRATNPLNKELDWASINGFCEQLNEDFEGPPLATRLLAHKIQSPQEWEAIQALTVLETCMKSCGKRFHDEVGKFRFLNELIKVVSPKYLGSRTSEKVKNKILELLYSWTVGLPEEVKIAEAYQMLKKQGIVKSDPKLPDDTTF
The conditions noted are these: number of wild-type / mutant comparisons summed (bounds the score): 5; paper call: no_effect; wild-type window: ….

For the next assay, the target named is T5, GGA3_VHS__Q9NZ52_1_166.
T5 chain: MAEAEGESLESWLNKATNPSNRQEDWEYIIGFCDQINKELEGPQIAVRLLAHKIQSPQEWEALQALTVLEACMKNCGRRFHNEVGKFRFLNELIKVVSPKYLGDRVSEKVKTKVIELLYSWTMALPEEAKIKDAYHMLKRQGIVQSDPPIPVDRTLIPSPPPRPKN
The note with it: number of wild-type / mutant comparisons summed (bounds the score): 6; paper call: no_effect; wild-type window: ….

Assay [4] has as its target T6, PDZK1_PDZ_2_Q5T2W1_132_224.
T6 chain: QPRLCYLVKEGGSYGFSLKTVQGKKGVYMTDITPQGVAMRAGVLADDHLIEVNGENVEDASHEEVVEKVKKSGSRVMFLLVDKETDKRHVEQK
The note with it: number of wild-type / mutant comparisons summed (bounds the score): 6; paper call: no_effect; wild-type window: ….

The target in a further assay is T7, SHC_PH__P29353_149_317.
T7 chain: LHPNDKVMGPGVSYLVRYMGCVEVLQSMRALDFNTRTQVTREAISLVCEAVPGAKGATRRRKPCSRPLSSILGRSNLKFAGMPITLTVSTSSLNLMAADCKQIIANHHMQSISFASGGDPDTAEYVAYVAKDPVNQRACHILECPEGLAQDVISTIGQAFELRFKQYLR
The note with it: number of wild-type / mutant comparisons summed (bounds the score): 6; paper call: no_effect; wild-type window: ….

Another assay concerns the target T8, DOK1_PTB__Q99704_151_256.
T8 chain: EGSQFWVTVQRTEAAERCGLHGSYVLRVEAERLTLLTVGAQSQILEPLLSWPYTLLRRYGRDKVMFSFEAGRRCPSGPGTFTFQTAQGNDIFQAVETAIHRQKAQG
The note with it: number of wild-type / mutant comparisons summed (bounds the score): 5; paper call: no_effect; wild-type window: ….

In assay [5] the target is GABARAPL1_ATG8__Q9H0R8_2_115. The conditions noted are these: number of wild-type / mutant comparisons summed (bounds the score): 24; paper call: enhanced; wild-type window: ….
In assay [6] the target is MAP1LC3A_ATG8__Q9H492_2_121. The note with it: number of wild-type / mutant comparisons summed (bounds the score): 24; paper call: enhanced; wild-type window: ….
Assay [7] concerns the target MAP1LC3B_ATG8__Q9GZQ8_2_119. The note with it: wild-type window: ….
The target in another assay is EZR_FERM_1_P15311_2_295. The conditions noted are these: number of wild-type / mutant comparisons summed (bounds the score): 10; paper call: no_effect; wild-type window: ….
For another assay, the target named is T9, RDX_FERM_1_P35241_5_295.
T9 chain: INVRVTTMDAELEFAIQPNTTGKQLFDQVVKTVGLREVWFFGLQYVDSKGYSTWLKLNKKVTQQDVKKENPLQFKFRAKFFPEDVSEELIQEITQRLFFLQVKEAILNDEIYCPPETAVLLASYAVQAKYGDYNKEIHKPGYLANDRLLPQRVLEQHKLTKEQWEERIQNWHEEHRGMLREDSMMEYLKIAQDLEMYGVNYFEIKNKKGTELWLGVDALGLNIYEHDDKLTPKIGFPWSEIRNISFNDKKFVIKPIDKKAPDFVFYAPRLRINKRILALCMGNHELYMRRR
The conditions noted are these: number of wild-type / mutant comparisons summed (bounds the score): 12; paper call: no_effect; wild-type window: ….

The target of assay [8] is T10, CLTC_Clathrin-propeller__Q00610_1_364.
T10 chain: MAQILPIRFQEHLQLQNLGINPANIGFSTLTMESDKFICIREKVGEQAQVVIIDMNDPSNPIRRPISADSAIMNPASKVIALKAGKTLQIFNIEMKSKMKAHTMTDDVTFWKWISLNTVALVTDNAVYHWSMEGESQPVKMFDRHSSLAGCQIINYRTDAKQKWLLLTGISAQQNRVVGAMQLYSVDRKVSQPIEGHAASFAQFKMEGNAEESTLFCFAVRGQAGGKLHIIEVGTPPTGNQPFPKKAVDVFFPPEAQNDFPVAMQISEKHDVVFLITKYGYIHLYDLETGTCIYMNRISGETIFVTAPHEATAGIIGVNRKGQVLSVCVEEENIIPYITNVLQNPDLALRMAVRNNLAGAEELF
The conditions noted are these: number of wild-type / mutant comparisons summed (bounds the score): 6; paper call: no_effect; wild-type window: ….

A further assay has as its target T11, GEF_Sec7__Q9Y6D5_639_829.
T11 chain: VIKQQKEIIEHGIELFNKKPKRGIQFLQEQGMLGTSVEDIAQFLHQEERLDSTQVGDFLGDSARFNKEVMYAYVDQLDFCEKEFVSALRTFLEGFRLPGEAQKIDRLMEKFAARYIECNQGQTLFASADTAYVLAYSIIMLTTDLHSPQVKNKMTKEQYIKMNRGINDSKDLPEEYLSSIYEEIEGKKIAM
The conditions noted are these: number of wild-type / mutant comparisons summed (bounds the score): 6; paper call: no_effect; wild-type window: ….

In assay [9] the target is T12, PEX14_Pex14__O75381_16_84.
T12 chain: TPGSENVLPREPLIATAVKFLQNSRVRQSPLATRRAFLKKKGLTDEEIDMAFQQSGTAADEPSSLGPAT
The conditions noted are these: number of wild-type / mutant comparisons summed (bounds the score): 12; paper call: no_effect; wild-type window: ….

The target in a further assay is T13, EPS15_EH__P42566_121_215.
T13 chain: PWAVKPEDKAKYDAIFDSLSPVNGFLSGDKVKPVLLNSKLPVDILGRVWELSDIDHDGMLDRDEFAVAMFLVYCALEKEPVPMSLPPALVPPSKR
The conditions noted are these: number of wild-type / mutant comparisons summed (bounds the score): 6; paper call: no_effect; wild-type window: ….

For a further assay, the target named is SNX27_PDZ__Q96L92_40_141. The conditions noted are these: number of wild-type / mutant comparisons summed (bounds the score): 6; paper call: no_effect; wild-type window: ….
[10] abbreviates: number of wild-type / mutant comparisons summed (bounds the score): 6, paper call: no_effect.
Setting [11] is: number of wild-type / mutant comparisons summed (bounds the score): 6.

The other results are listed elsewhere or left out. Single values of this set are uncertain.

EZR_FERM_1_P15311_2_295, sequence (chain, as listed by the source): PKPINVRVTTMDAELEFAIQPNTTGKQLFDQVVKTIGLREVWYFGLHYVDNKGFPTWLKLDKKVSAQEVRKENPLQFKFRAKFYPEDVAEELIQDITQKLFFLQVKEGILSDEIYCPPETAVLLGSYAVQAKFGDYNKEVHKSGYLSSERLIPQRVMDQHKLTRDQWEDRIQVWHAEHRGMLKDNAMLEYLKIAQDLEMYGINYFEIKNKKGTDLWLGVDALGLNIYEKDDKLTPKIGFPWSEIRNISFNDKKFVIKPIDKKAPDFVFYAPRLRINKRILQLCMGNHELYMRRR

B1: E41K E41K (peptide)
chain: DWYPHSRLFDQAFGLPRLPEKWSQWLGGSSWPGYVRPLPPA
Take B1: the mutation enrichment score with AP2_Mu__Q96CW1_160_435 (setting [10]) was -2; in assay [1] (paper call: diminished), -6.

B2: P69R P69R (peptide)
chain: LIAGGSLSSTPMSTPCSSVPRSPSFSAPSPGSGSEQKAHLE
In the case of B2, in assay [2] (setting [11]), the mutation enrichment score is -2.

B3: P431L P431L (peptide)
chain: PSGGGGGGGQQRAGDWKCPNLTCENMNFSWRNECNQCKAPK
On to B3, for which the mutation enrichment score in [2] (setting [11]) stood at 2.

B4: P78S P78S (peptide)
chain: PSCGLPYYWNADTDLVSWLSSHDPNSVVTKSAKKLRSSNAD
Consider B4, for which the mutation enrichment score is 2.9 in assay [1] (paper call: no_effect); -0.21 in [3]; -2 in the assay with GGA1_VHS__Q9UJY5_1_157; -2.1 with GGA3_VHS__Q9NZ52_1_166; -0.083 in assay [4]; 3.6 with SHC_PH__P29353_149_317.

B5: R398W R398W (peptide)
chain: EDSERRRNHNILERQRRNDLWSSFLTLRDHVPELVKNEKAA
For B5, the mutation enrichment score in [1] (paper call: no_effect) was 4.

B6: Q758K Q758K (peptide)
chain: DQLKLQEKDIQMWKVSLQKEKARYNQLQEQRDTMVTKLHSQ
Take B6: the mutation enrichment score in the assay with AP2_Mu__Q96CW1_160_435 (setting [10]) was 2.9.

B7: S10425L S10425L (peptide)
chain: VPQRVEVTRHEVSAEEEWSYLEEEEGVSISVYREEEREEEE
Regarding B7, the mutation enrichment score with AP2_Mu__Q96CW1_160_435 (setting [10]) stood at 4; with DOK1_PTB__Q99704_151_256, 4; in assay [5], 15; in assay [6], 9; in [7] (number of wild-type / mutant comparisons summed (bounds the score): 18, paper call: enhanced), 11.

B8: D841H D841H (peptide)
chain: GYRILGAVAKVREAFQPQEPHFPPPPPDLEQLRLTDELAPP
For B8, the mutation enrichment score in [2] (setting [11]) is -2.

B9: E897K E897K (peptide)
chain: DEVNEGELKEIKQDISSLRYKLLEEKSQNTEDLAELIRELG
For the molecule B9, in the assay with AP2_Mu__Q96CW1_160_435 (number of wild-type / mutant comparisons summed (bounds the score): 12, paper call: diminished), the mutation enrichment score is -6.6.

B10: R208G R208G (peptide)
chain: RKKNIAAERKEAKQEKEEADGYQRLKDEVVRAQVQLQLFKL
B10: the mutation enrichment score in the assay with AP2_Mu__Q96CW1_160_435 (setting [10]) came to 5.6.

B11: P994L P994L (peptide)
chain: NYCTSGAYSNASSTDSASYYLLTGDTRLELELRPTGEIEQY
For B11, the mutation enrichment score with AP2_Mu__Q96CW1_160_435 (setting [10]) is 3.5; with EZR_FERM_1_P15311_2_295, 2; with RDX_FERM_1_P35241_5_295 it was 5.

B12: T3464I T3464I (peptide)
chain: KVSIPLTEGLDLISMLTDDAIIAAWNNEGLPSDRMSTENAA
With B12, the mutation enrichment score in assay [8] turned out to be 5.

B13: E1588K E1588K (peptide)
chain: APPELVPMKVKEPEPQYFRFKGVWLTETGMALLRNLTMSPL
For the molecule B13, the mutation enrichment score in assay [2] (number of wild-type / mutant comparisons summed (bounds the score): 12) was 4.3; with GEF_Sec7__Q9Y6D5_639_829, -5.9; in assay [9], -4.

B14: G992E G992E (peptide)
chain: GSLPHSDDAGDYEQLFSSTQEEISEPSQITSEPEEQSGAVR
In the case of B14, the mutation enrichment score was -4 in the assay with AP2_Mu__Q96CW1_160_435 (setting [10]) and -0.76 in [7] (number of wild-type / mutant comparisons summed (bounds the score): 12, paper call: no_effect).

B15: P1869L P1869L (peptide)
chain: ALSQAVTDVYARFGEEHSANLFHWDLIGKNLFAMVVEGVVY
Turning to B15, the mutation enrichment score with AP2_Mu__Q96CW1_160_435 (setting [10]) is 3.5; with EPS15_EH__P42566_121_215, -4.

B16: W787C W787C (peptide)
chain: VIVVWNTYVKINDLEHSVHHCTINKEIKETEFKGIPISYLE
On to B16, for which the mutation enrichment score was 5 with AP2_Mu__Q96CW1_160_435 (setting [10]) and -1.8 with SNX27_PDZ__Q96L92_40_141.

The values are drawn from the supplement of paper PMC11369174, “Proteome-scale characterisation of motif-based interactome rewiring by disease mutations” (Molecular Systems Biology, 2024).
